55 compounds from article PMC4336329 (PLoS ONE, 2015) can be followed below.

Out of some 310,000 compounds screened, about 2,200 (0.71%) showed an effect of 50% or more. Effects have a minus sign here. This is one part of the list.

This assay deals with human ether-à-go-go-related gene (hERG) potassium channel (human, UniProt Q12809). The assay can be described thus: primary screen, population patch clamp on CHO cells stably expressing hERG.
Chain of human ether-à-go-go-related gene (hERG) potassium channel (Q12809 whole entry, looked up): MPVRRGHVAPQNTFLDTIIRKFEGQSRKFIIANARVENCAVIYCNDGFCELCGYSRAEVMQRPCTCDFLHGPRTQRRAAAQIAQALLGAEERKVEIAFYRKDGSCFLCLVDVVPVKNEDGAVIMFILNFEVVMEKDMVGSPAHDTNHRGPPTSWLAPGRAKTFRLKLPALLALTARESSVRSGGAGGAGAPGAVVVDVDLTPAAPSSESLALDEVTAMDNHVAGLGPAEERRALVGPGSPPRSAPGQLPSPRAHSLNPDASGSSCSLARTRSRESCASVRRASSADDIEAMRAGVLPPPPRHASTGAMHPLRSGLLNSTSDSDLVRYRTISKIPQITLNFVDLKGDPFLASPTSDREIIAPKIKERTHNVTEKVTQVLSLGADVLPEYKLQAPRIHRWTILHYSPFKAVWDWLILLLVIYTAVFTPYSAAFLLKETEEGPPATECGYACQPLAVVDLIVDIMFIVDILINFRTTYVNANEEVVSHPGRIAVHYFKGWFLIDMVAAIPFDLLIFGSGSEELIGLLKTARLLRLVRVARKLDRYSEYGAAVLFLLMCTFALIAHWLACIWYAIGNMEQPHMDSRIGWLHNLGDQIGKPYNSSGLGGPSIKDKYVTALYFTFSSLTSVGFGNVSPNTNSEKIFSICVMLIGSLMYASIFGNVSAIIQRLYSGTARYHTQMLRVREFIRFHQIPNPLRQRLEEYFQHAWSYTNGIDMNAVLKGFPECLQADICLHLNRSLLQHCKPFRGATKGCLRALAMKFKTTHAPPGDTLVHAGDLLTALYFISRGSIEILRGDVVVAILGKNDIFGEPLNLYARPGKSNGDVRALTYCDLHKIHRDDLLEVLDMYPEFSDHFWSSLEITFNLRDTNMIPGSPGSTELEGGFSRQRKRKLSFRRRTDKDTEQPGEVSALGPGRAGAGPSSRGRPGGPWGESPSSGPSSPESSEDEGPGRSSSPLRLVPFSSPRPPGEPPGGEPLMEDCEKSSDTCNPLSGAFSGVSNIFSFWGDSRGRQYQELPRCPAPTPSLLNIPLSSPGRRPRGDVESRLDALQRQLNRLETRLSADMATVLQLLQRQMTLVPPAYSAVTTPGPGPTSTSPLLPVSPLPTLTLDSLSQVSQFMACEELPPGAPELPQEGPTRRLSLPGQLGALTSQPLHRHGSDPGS
Regarding `CCCOc1ccc(N2CC(C(=O)NCCc3ccc(OC)c(OC)c3)CC2=O)cc1` (stereo not shown), the “hERG current change (%, negative = inhibition) at 1uM” value is on record as 5.71%. In the case of `CC1CCN(CCCCOc2ccccc2[N+](=O)[O-])CC1.O=C(O)C(=O)O`, the “hERG current change (%, negative = inhibition) at 1uM” value was -9.2%.

Take `COc1ccc(S(=O)(=O)Nc2ccc3c(c2)OCO3)cc1`: the “hERG current change (%, negative = inhibition) at 1uM” value stood at 16.6%. As for `NC(=O)[C@@H]1CC2(CC(c3cccc(NC(=O)COc4ccc(Cl)cc4)c3)=NO2)CN1C(=O)COc1ccc(Cl)cc1` (stereo partly shown), the figure is 12.5%; as for `Brc1csc2ncccc12`, 14.8%. As for `Fc1ccccc1OCCCCN1CCCCC1`, the figure is 15.2%; as for `Cc1onc(-c2c(Cl)cccc2Cl)c1C(=O)O/N=C(\C#N)c1c(Cl)cccc1Cl`, 9.12%; as for `CC1=CN2C(=NC(=O)CC2(C)C(=O)N(CC(=O)NC2CCCC2)Cc2ccccc2)C=C1` (stereo not shown), 6.18%. With `Cc1ccc(-n2nc(-c3ccc(OC(F)(F)F)cc3)cc2N)cc1C`, the “hERG current change (%, negative = inhibition) at 1uM” value is 5.24%. Consider `CCn1c(SCC(=O)Nc2ccc3c(c2)OCCO3)nnc1-c1ccncc1`, for which the “hERG current change (%, negative = inhibition) at 1uM” value amounted to 8.36%. As for `Cc1oc(-c2cc(F)ccc2F)nc1CN1CCN(c2cnccn2)CC1`, the figure is 1.5%; as for `N#CC1=C(N)SC(N)=C(C#N)C1C1C=CCCC1` (stereo not shown), -13.2%.

For `COc1cc(NC(=O)c2ccc(F)cc2)c(OC)cc1Cl`, the “hERG current change (%, negative = inhibition) at 1uM” value is recorded as 0.657%. On to `Cc1ccccc1/C=N/NC(=O)Cc1ccc(Cl)cc1`, for which the “hERG current change (%, negative = inhibition) at 1uM” value is recorded as 14.9%. For `Cc1nc(NCc2ccccc2)c(C(N)=O)c2c1COC(C)(C)C2`, the “hERG current change (%, negative = inhibition) at 1uM” value was -4.15%. As for `Cc1ccc2nc(NNC(=O)c3ccc(S(=O)(=O)N4CCc5ccccc5C4)cc3)sc2c1`, the figure is 13.4%; as for `COc1ccc(CCN(C)C(=O)COc2ccc(C(=O)c3ccccc3)cc2)cc1OC`, -7.83%; as for `CCOc1cc(/C=C/c2ccc3cccc([N+](=O)[O-])c3n2)ccc1OCC(=O)N(C)C`, -1.04%. Then `O=C(CCc1nnc(C2(c3ccc(Cl)cc3)CCC2)o1)N1CCCC1`, with 6.18%; and `CCN(CCN1CCCC1)C(=O)C1CCC(=O)N(CCCN2CCOCC2)C1` (stereo not shown), with -2.93%; and `Cc1cccn2c(=O)c(/C=C(\C#N)C(=O)NCc3ccco3)c(N3CCOCC3)nc12`, with 3.47%. For the compound `COc1ccc2[nH]c3c(c2c1)CCNC3=O`, the “hERG current change (%, negative = inhibition) at 1uM” value is given as 9.53%. Then `CC(C)NC(=O)c1ccc(COc2cc(Cl)ccc2Cl)o1`, with 11.3%; and `CN(CCCNC(=O)CSc1cc(=O)n(C)c2cc(Cl)ccc12)Cc1ccccc1`, with -19.1%. For `CC(C)n1nc(C(=O)Nc2ccc3c(c2)OCO3)c2ccccc2c1=O`, the “hERG current change (%, negative = inhibition) at 1uM” value came to 13.2%. As for `CCC(C(=O)Nc1cc(Cl)ccc1OC)c1ccccc1` (stereo not shown), the figure is 9.49%. As for `CC(=O)NC(Cc1ccc(F)c(F)c1)C(=O)NC1CCN(c2c(Cc3ccccc3)c(C)nc3ncnn23)CC1` (stereo not shown), the figure is 3.9%.

Take `CCOC(=O)N1CCN(c2ncc(C(F)(F)F)cc2Cl)CC1`: the “hERG current change (%, negative = inhibition) at 1uM” value is recorded as 19.2%. As for `CC(C)OC(=O)CC1C(=O)NCCN1C(=S)NC(=O)c1ccccc1` (stereo not shown), the “hERG current change (%, negative = inhibition) at 1uM” value is on record as 7.78%. With `CN(c1ncc(C(F)(F)F)cc1Cl)N1C(=O)C2ONC3(C(=O)CC(C)(C)CC3=O)C2C1=O` (stereo not shown), the “hERG current change (%, negative = inhibition) at 1uM” value was 10.3%. As for `CCc1cccc(C)c1NC(=O)COC(=O)c1ccc2c(c1)S(=O)(=O)c1ccccc1C2=O`, the figure is -5.35%; as for `CC(C)Cc1ccc(/C=C/C(=O)N2CCCCC2)cc1`, 9.33%; as for `CN(C(=S)Nc1ccc(SC(F)F)cc1)c1ccc(O)cc1`, 7.76%.

As for `COc1ccc(CCC(=O)NCC2CCCCC2)cc1OC`, the “hERG current change (%, negative = inhibition) at 1uM” value is recorded as 11.8%.

In the case of `Cc1ccc(C)c(NC(=O)C2CC(O)CN2C(=O)OCc2ccccc2)c1` (stereo not shown), the “hERG current change (%, negative = inhibition) at 1uM” value was determined as 2.34%. As to `Cc1c(C(=O)NNC(=O)c2ccncc2)oc2ccccc12`, the “hERG current change (%, negative = inhibition) at 1uM” value amounted to 5.93%.

Consider `O=S(=O)(c1ccccc1)N1CCC(n2cnc3ccccc32)CC1`, for which the “hERG current change (%, negative = inhibition) at 1uM” value is -27.2%. Take `COc1ccc2c(c1)CCc1c(C(=O)N(C)c3ccccc3)noc1-2`: the “hERG current change (%, negative = inhibition) at 1uM” value came to 12.1%. Then `Cc1ccc(C(=O)OCC(=O)NNC(=O)c2cccs2)c(O)c1`, with 15.6%; and `Cc1cc(C)n(C(=O)c2cc(F)c(F)cc2C)n1`, with -5.43%; and `COc1cc(C(=O)NC(=S)Nc2ccccc2[N+](=O)[O-])cc(OC)c1OC`, with 9.67%. In the case of `FC(F)(F)c1cccc(Cc2noc(CN3CCCC(CN4CCCC4)C3)n2)c1` (stereo not shown), the “hERG current change (%, negative = inhibition) at 1uM” value is given as -14%. `COc1ncccc1C(=O)N1CCCC(C(=O)c2cccc(OC(C)C)c2)C1` (stereo not shown): the “hERG current change (%, negative = inhibition) at 1uM” value worked out at 5.3%.

Turning to `O=C(Nc1nc2ccccc2n1CCN1CCOCC1)c1ccccc1`, the “hERG current change (%, negative = inhibition) at 1uM” value turned out to be 9.95%. In the case of `CCN1CCN(CCCNC(=O)c2ccc(/C=C3/Oc4ccccc4N(Cc4cccc(C)c4)C3=O)cc2)CC1`, the “hERG current change (%, negative = inhibition) at 1uM” value was 15%.

In the case of `CN(CCOc1ccccc1)C(=O)C1CCN(C(=O)c2ccc(Cl)cc2)CC1`, the “hERG current change (%, negative = inhibition) at 1uM” value was -9.82%.

Regarding `Nc1nc(COC(=O)C2CC(=O)N(Cc3ccccc3)C2)nc(Nc2ccccc2)n1` (stereo not shown), the “hERG current change (%, negative = inhibition) at 1uM” value is reported as -6.95%. In the case of `C/C(=N/N=C1\SCC(=O)N1c1ccccc1)c1ccc(C)cc1`, the “hERG current change (%, negative = inhibition) at 1uM” value is listed as 16.6%. `CCOC(=O)N1CCN(C2CCCN(C(=O)c3ccccc3N(C)C)C2)CC1` (stereo not shown): the “hERG current change (%, negative = inhibition) at 1uM” value amounted to 12.3%. As for `Cc1ccc(NC(=O)C2CCCN2S(=O)(=O)c2ccc3c(c2)n(C)c(=O)c(=O)n3C)cc1` (stereo not shown), the “hERG current change (%, negative = inhibition) at 1uM” value is given as 0.652%. In the case of `CCSc1nnc(NC(=O)c2cccc(OCc3c(C)noc3C)c2)s1`, the “hERG current change (%, negative = inhibition) at 1uM” value amounted to 6.83%. Then `COc1ccc(-c2nsc3c(N4CCCCC4)ncnc23)cc1`, with -0.389%; and `O=C(NC1CCSC1=O)c1cccc(C(=O)NC2CCSC2=O)c1` (stereo not shown), with 3.01%; and `CCCCC(=O)N/N=C/c1c(O)n(CC)c(=S)[nH]c1=O`, with 8.95%.

`Cc1nn(Cc2ccccc2)c(C)c1C(=O)Nc1ccc(N2CCOCC2)cc1`: the “hERG current change (%, negative = inhibition) at 1uM” value amounted to 11.8%.
